In article PMC7819943, “Rice protein-binding microarrays: a tool to detect cis-acting elements near promoter regions in rice”:
Some of the results follow.

Target: T1, OsWOX13 (Oryza sativa, UniProt Q5QMM3 1-267)
T1 sequence: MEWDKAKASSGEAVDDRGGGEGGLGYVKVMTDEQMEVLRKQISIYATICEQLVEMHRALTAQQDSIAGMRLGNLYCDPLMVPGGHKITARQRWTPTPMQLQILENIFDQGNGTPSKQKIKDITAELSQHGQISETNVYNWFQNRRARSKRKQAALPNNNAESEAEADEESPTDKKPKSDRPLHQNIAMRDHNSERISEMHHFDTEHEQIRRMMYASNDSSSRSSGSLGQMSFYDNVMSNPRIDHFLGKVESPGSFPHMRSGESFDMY
Test: protein-binding microarray (RPBM); PBS, 2% BSA, 51.3 ng/ul salmon testes DNA, 50 uM zinc acetate, 200 nM TF, 25 C, 1 h; high values mean tight binding
Conditions: protein: recombinant; tags: N-terminal polyhistidine and DsRed monomer fusion (pET32a); label: CyDye5-dUTP incorporated in the synthesized complementary strand; 3' TTTTT single-stranded linker to array surface; dsDNA, one strand shown
Procedure, shortened: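 Binding signal is defined as the fluorescence intensity of each feature in arbitrary units, read on an Axon 4000B scanner. Transcription factors with N-terminal polyhistidine and DsRed fusions came from E. coli BL21-CodonPlus and were purified on Ni–NTA. They were incubated at 200 nM for 1 h at 25 °C on a custom Agilent array that had been made double-stranded with Cy5-dUTP, with 50 µM zinc acetate present, and the array was washed.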

Compared with “CTTATATTTGCAAATATTGATGGTTGTTGACATATGAACTCGGAGTCACCTAGTGCAG”, “GCATTTCATTTGATTTAACACTTTTACCCCTTATCTCCAACGGAGTCACCTAGTGCAG” is higher in binding signal: 3210 fluorescence intensity (a.u.) for the first, 5100 fluorescence intensity (a.u.) for the second.

Compared with “ATCATATTCAATCATCAAGACATGAACGATTTCTTTTAGTCGGAGTCACCTAGTGCAG”, “GAAAAGTCTGCTCTTAATTGGAAGTATGTATGAGTATCAGCGGAGTCACCTAGTGCAG” is lower in binding signal: 15400 fluorescence intensity (a.u.) for the first, 4970 fluorescence intensity (a.u.) for the second.

Going from “AAATTTAAATTTGAAGTTGATTTTAAGATATTTTCAACGTCGGAGTCACCTAGTGCAG” to “TTCAATCCTAGAACACAAGTTGATTAGTTGAACAGGCAGCCGGAGTCACCTAGTGCAG”, the binding signal falls from 21000 fluorescence intensity (a.u.) to 3460 fluorescence intensity (a.u.).

Going from “AAATGTAATTTTAAAATTAAAATTTCAAAATCTATAAACACGGAGTCACCTAGTGCAG” to “CACATTGATGTGCAATCTGCAAATCCGGCGCCAAATTTACCGGAGTCACCTAGTGCAG”, the binding signal falls from 11300 fluorescence intensity (a.u.) to 5260 fluorescence intensity (a.u.).

First: TGATTGATCATTGTACATCTATTAGTCCTGTTGTTCCATCCGGAGTCACCTAGTGCAG
Second: TTTTGTTTATTACGTGCATAATAGGCTAATTATGCAAGAACGGAGTCACCTAGTGCAG
The binding signal of the first is higher: 9270 fluorescence intensity (a.u.) for the first, 5150 fluorescence intensity (a.u.) for the second.

First: CGCTCGCGACAATTAATGTATAATACGTAATTACGTATACCGGAGTCACCTAGTGCAG
Second: ATGGGCCCCGCTACATTGATTGGGCCACGTTGGGTCTTGGCGGAGTCACCTAGTGCAG
The binding signal of the first is higher: 5400 fluorescence intensity (a.u.) for the first, 4520 fluorescence intensity (a.u.) for the second.

Going from “TCACTTATCACTAAAAGAATAATTAGTTGTAAATGTGAGCCGGAGTCACCTAGTGCAG” to “CGCGCCAATCATCTCCCGCTCCCTCTTATCCTCCCCTCTCCGGAGTCACCTAGTGCAG”, the binding signal rises from 3200 fluorescence intensity (a.u.) to 14100 fluorescence intensity (a.u.).

Going from “CTTGATTAATCCGTACGTCTATCAACTCAGCCCGAAACGCCGGAGTCACCTAGTGCAG” to “TTTGTGCTAATTACCTATTTGCAATATTTAGATTGCATCTCGGAGTCACCTAGTGCAG”, the binding signal falls from 46200 fluorescence intensity (a.u.) to 15300 fluorescence intensity (a.u.).

First: TGAGATAATAGACGCGTGCTTTGCAGAGTGATCCAAAGCTCGGAGTCACCTAGTGCAG
Second: AGATAAAATGAGTAATCATCTGTCTAACATGTCACACCAGCGGAGTCACCTAGTGCAG
The binding signal of the first is lower: 3350 fluorescence intensity (a.u.) for the first, 11800 fluorescence intensity (a.u.) for the second.

Going from “CGTGCAATTTATCGTTGATCGATCGAATCGTGGTGAAGAACGGAGTCACCTAGTGCAG” to “TATGACAGGTTGATGTGATGGAAAAGAACTGAAGTTTGGACGGAGTCACCTAGTGCAG”, the binding signal rises from 4200 fluorescence intensity (a.u.) to 20900 fluorescence intensity (a.u.).

Going from “CTTGGATTTAATTGCTCGTGCATATGTTTTCAGATGTCAGCGGAGTCACCTAGTGCAG” to “AAATTTGACAGATGTAATTACAGTACATCAATTGAAGTGTCGGAGTCACCTAGTGCAG”, the binding signal rises from 21700 fluorescence intensity (a.u.) to 43500 fluorescence intensity (a.u.).

Going from “TCCCTTATTTTCTTGCGCAATCATTACCCACAACCTCAAACGGAGTCACCTAGTGCAG” to “TAGTAATTGTTATATACAGATCATATTCGTAGTACTACTTCGGAGTCACCTAGTGCAG”, the binding signal rises from 3290 fluorescence intensity (a.u.) to 12400 fluorescence intensity (a.u.).

Going from “GAAATGATGGCTTTCTTTGATTTCCTTTGCTAGCTTACTTCGGAGTCACCTAGTGCAG” to “CATGACTTGGATAAATTAGCGTCATCTTTGTCCCCAATGCCGGAGTCACCTAGTGCAG”, the binding signal rises from 3730 fluorescence intensity (a.u.) to 16300 fluorescence intensity (a.u.).

Compared with “TAACTGATTACTCATTCGTTCTTAAAATATATAGCAATCTCGGAGTCACCTAGTGCAG”, “CCGTCACATTGTTTCAATTTCAATCAAACTTTTAATTTTACGGAGTCACCTAGTGCAG” is lower in binding signal: 12100 fluorescence intensity (a.u.) for the first, 6870 fluorescence intensity (a.u.) for the second.

Compared with “AGCGTATTCACATATTTAATTAATATTTATAGATATCACGCGGAGTCACCTAGTGCAG”, “TTTCAATTATATACGTAGAAGTATTATGGACCAGACCTCCCGGAGTCACCTAGTGCAG” is lower in binding signal: 5290 fluorescence intensity (a.u.) for the first, 3320 fluorescence intensity (a.u.) for the second.

First: CATAATATTATAAATTTAGACAGGGAGCATGTATAGATTCCGGAGTCACCTAGTGCAG
Second: TAAATTAATCATGCATGCATGGCCATTTTAGTCCGTACATCGGAGTCACCTAGTGCAG
The binding signal of the first is higher: 14200 fluorescence intensity (a.u.) for the first, 4900 fluorescence intensity (a.u.) for the second.

Going from “CCACTAATCATACTTATCAGCCGCTCAATCAGAGTGACAACGGAGTCACCTAGTGCAG” to “TCATGTAATTGTTGATAAGAGTGTCAGAATTCAGATAGTGCGGAGTCACCTAGTGCAG”, the binding signal falls from 15000 fluorescence intensity (a.u.) to 13500 fluorescence intensity (a.u.).

Compared with “GAGTGACAGAGACATAGCAACTAACAGTCACAGGCAGGCACGGAGTCACCTAGTGCAG”, “CTCTGTCCATCACCACTTGATTAGGAGGGATCTAAATGGTCGGAGTCACCTAGTGCAG” is higher in binding signal: 5390 fluorescence intensity (a.u.) for the first, 15100 fluorescence intensity (a.u.) for the second.

Compared with “CGATGACAGGATGAGTGACCTCAAGTGAACCTTTTCCACTCGGAGTCACCTAGTGCAG”, “TTTATATTAGTGAGTAAATTGGTGATGAAATTTCTATAACCGGAGTCACCTAGTGCAG” is higher in binding signal: 9930 fluorescence intensity (a.u.) for the first, 16300 fluorescence intensity (a.u.) for the second.

First: CGATTGAAATTTCGATAATTTCGTCAAAGCCGATTGGTTTCGGAGTCACCTAGTGCAG
Second: AGGTAATCAAGGTGATAATTTGAGCTACTAGACCACTACTCGGAGTCACCTAGTGCAG
The binding signal of the first is lower: 13400 fluorescence intensity (a.u.) for the first, 24100 fluorescence intensity (a.u.) for the second.

First: GCCACTGATGGGATTTCCTTAACTACCAAGCAACAAACCGCGGAGTCACCTAGTGCAG
Second: AGCGCCTAATTAACCCGTGAACAACGTGTCTTTTCATCGTCGGAGTCACCTAGTGCAG
The binding signal of the first is higher: 7830 fluorescence intensity (a.u.) for the first, 7010 fluorescence intensity (a.u.) for the second.
